Residue numbers refer to the chain shown, from its start. The list shows a part of the results.
T1: RBFOX1 RRM (Homo sapiens, UniProt Q9NWB1 109-208)
T1 sequence: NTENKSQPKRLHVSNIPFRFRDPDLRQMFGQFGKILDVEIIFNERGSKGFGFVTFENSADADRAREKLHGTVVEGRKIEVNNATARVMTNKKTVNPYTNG

B1: AAAUAGA (DNA:RNA)
RNA: GGGAGACCGGAAUUCAGAUUGUCCAAAUAGAUUAAAUCCCGUCGUAGCCACCA
DNA 1: CAATCTGAATTCCGGTCTCCC
DNA 2: TGGTGGCTACGACGGGATT
B2: UCCAUGU (DNA:RNA)
RNA: B1 RNA with A25U, A26C, A27C, U28A, A29U, A31U
DNA 1: CAATCTGAATTCCGGTCTCCC
DNA 2: TGGTGGCTACGACGGGATT
B3: ACCACUU (DNA:RNA)
RNA: B1 RNA with A26C, A27C, U28A, A29C, G30U, A31U
DNA 1: CAATCTGAATTCCGGTCTCCC
DNA 2: TGGTGGCTACGACGGGATT
B4: AAGCUGC (DNA:RNA)
RNA: B1 RNA with A27G, U28C, A29U, A31C
DNA 1: CAATCTGAATTCCGGTCTCCC
DNA 2: TGGTGGCTACGACGGGATT
B5: AAGCUUG (DNA:RNA)
RNA: B1 RNA with A27G, U28C, A29U, G30U, A31G
DNA 1: CAATCTGAATTCCGGTCTCCC
DNA 2: TGGTGGCTACGACGGGATT
B6: CCUCGUC (DNA:RNA)
RNA: GGGAGACCGGAAUUCAGAUUGUCCCCUCGUCUUAAAUCCCGUCGUAGCCACCA
DNA 1: CAATCTGAATTCCGGTCTCCC
DNA 2: TGGTGGCTACGACGGGATT
B7: CUAGUAG (DNA:RNA)
RNA: B1 RNA with A25C, A26U, U28G, A29U, G30A, A31G
DNA 1: CAATCTGAATTCCGGTCTCCC
DNA 2: TGGTGGCTACGACGGGATT
B8: CACCUUA (DNA:RNA)
RNA: B6 RNA with C26A, U27C, G29U, C31A
DNA 1: CAATCTGAATTCCGGTCTCCC
DNA 2: TGGTGGCTACGACGGGATT
B9: AUCGCCU (DNA:RNA)
RNA: B1 RNA with A26U, A27C, U28G, A29C, G30C, A31U
DNA 1: CAATCTGAATTCCGGTCTCCC
DNA 2: TGGTGGCTACGACGGGATT
B10: AGCCUGA (DNA:RNA)
RNA: B1 RNA with A26G, A27C, U28C, A29U
DNA 1: CAATCTGAATTCCGGTCTCCC
DNA 2: TGGTGGCTACGACGGGATT
B11: UACCCUC (DNA:RNA)
RNA: B6 RNA with C25U, C26A, U27C, G29C
DNA 1: CAATCTGAATTCCGGTCTCCC
DNA 2: TGGTGGCTACGACGGGATT
B12: UCUGCGG (DNA:RNA)
RNA: B6 RNA with C25U, C28G, G29C, U30G, C31G
DNA 1: CAATCTGAATTCCGGTCTCCC
DNA 2: TGGTGGCTACGACGGGATT
B13: CACGUAG (DNA:RNA)
RNA: B1 RNA with A25C, A27C, U28G, A29U, G30A, A31G
DNA 1: CAATCTGAATTCCGGTCTCCC
DNA 2: TGGTGGCTACGACGGGATT
B14: ACACCAA (DNA:RNA)
RNA: B1 RNA with A26C, U28C, A29C, G30A
DNA 1: CAATCTGAATTCCGGTCTCCC
DNA 2: TGGTGGCTACGACGGGATT
B15: AUUUUAA (DNA:RNA)
RNA: B1 RNA with A26U, A27U, A29U, G30A
DNA 1: CAATCTGAATTCCGGTCTCCC
DNA 2: TGGTGGCTACGACGGGATT
B16: CAAACAG (DNA:RNA)
RNA: B1 RNA with A25C, U28A, A29C, G30A, A31G
DNA 1: CAATCTGAATTCCGGTCTCCC
DNA 2: TGGTGGCTACGACGGGATT
B17: CGAUACU (DNA:RNA)
RNA: B1 RNA with A25C, A26G, G30C, A31U
DNA 1: CAATCTGAATTCCGGTCTCCC
DNA 2: TGGTGGCTACGACGGGATT
B18: UUCGUCG (DNA:RNA)
RNA: GGGAGACCGGAAUUCAGAUUGUCCUUCGUCGUUAAAUCCCGUCGUAGCCACCA
DNA 1: CAATCTGAATTCCGGTCTCCC
DNA 2: TGGTGGCTACGACGGGATT
B19: UUACAUG (DNA:RNA)
RNA: B18 RNA with C27A, G28C, U29A, C30U
DNA 1: CAATCTGAATTCCGGTCTCCC
DNA 2: TGGTGGCTACGACGGGATT
B20: GAGGAUA (DNA:RNA)
RNA: B1 RNA with A25G, A27G, U28G, G30U
DNA 1: CAATCTGAATTCCGGTCTCCC
DNA 2: TGGTGGCTACGACGGGATT
B21: AAAUCCA (DNA:RNA)
RNA: B1 RNA with A29C, G30C
DNA 1: CAATCTGAATTCCGGTCTCCC
DNA 2: TGGTGGCTACGACGGGATT
B22: AAUACUU (DNA:RNA)
RNA: B1 RNA with A27U, U28A, A29C, G30U, A31U
DNA 1: CAATCTGAATTCCGGTCTCCC
DNA 2: TGGTGGCTACGACGGGATT
B23: CAGCGUU (DNA:RNA)
RNA: B6 RNA with C26A, U27G, C31U
DNA 1: CAATCTGAATTCCGGTCTCCC
DNA 2: TGGTGGCTACGACGGGATT
B24: GGCCAAU (DNA:RNA)
RNA: B1 RNA with A25G, A26G, A27C, U28C, G30A, A31U
DNA 1: CAATCTGAATTCCGGTCTCCC
DNA 2: TGGTGGCTACGACGGGATT
B25: GGGCGAC (DNA:RNA)
RNA: B6 RNA with C25G, C26G, U27G, U30A
DNA 1: CAATCTGAATTCCGGTCTCCC
DNA 2: TGGTGGCTACGACGGGATT
B26: AGAACAU (DNA:RNA)
RNA: B1 RNA with A26G, U28A, A29C, G30A, A31U
DNA 1: CAATCTGAATTCCGGTCTCCC
DNA 2: TGGTGGCTACGACGGGATT
B27: UGCCCAU (DNA:RNA)
RNA: B18 RNA with U26G, G28C, U29C, C30A, G31U
DNA 1: CAATCTGAATTCCGGTCTCCC
DNA 2: TGGTGGCTACGACGGGATT
B28: GCGGUCU (DNA:RNA)
RNA: B18 RNA with U25G, U26C, C27G, G31U
DNA 1: CAATCTGAATTCCGGTCTCCC
DNA 2: TGGTGGCTACGACGGGATT
B29: AGCCGCA (DNA:RNA)
RNA: B1 RNA with A26G, A27C, U28C, A29G, G30C
DNA 1: CAATCTGAATTCCGGTCTCCC
DNA 2: TGGTGGCTACGACGGGATT
B30: GGUACAG (DNA:RNA)
RNA: B6 RNA with C25G, C26G, C28A, G29C, U30A, C31G
DNA 1: CAATCTGAATTCCGGTCTCCC
DNA 2: TGGTGGCTACGACGGGATT
B31: CUAAUAA (DNA:RNA)
RNA: B1 RNA with A25C, A26U, U28A, A29U, G30A
DNA 1: CAATCTGAATTCCGGTCTCCC
DNA 2: TGGTGGCTACGACGGGATT

Molecular target: T1, RBFOX1 RRM
Experiment: EMSA; HiTS-Eq, 1 nM pool, 10 min; buffer printed only for the single-RNA assays: 10 mM Tris pH 7.5, 150 mM NaCl, 3.4 mM EDTA, 0.001% NP-40, 30 C
Settings: tags: His6 N-terminal (pET28a); label: 5' 32P
Summary of the method: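 Purified RbFox RRM (wild type or mutant) was equilibrated for 10 min in 50 µL with 1 nM of a 5′-radiolabelled pool of RNA with 7 randomized nucleotides, its flanks annealed to DNA oligonucleotides, across increasing protein concentrations. Free RNA was separated by 8% native PAGE, excised, reverse-transcribed, PCR-barcoded and sequenced on an Illumina HiSeq 2500. Relative association constants came from read-count changes of each variant against the control reaction, normalised to the cognate motif.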

Row | Binder | binding signal
1 | B1 | 0.00419 KA relative to UGCAUGU
2 | B2 | 0.00752 KA relative to UGCAUGU
3 | B3 | 0.00384 KA relative to UGCAUGU
4 | B4 | 0.00602 KA relative to UGCAUGU
5 | B5 | 0.0197 KA relative to UGCAUGU
6 | B6 | 0.00752 KA relative to UGCAUGU
7 | B7 | 0.00793 KA relative to UGCAUGU
8 | B8 | 0.00249 KA relative to UGCAUGU
9 | B9 | 0.00212 KA relative to UGCAUGU
10 | B10 | 0.021 KA relative to UGCAUGU
11 | B11 | 0.00756 KA relative to UGCAUGU
12 | B12 | 0.0178 KA relative to UGCAUGU
13 | B13 | 0.0088 KA relative to UGCAUGU
14 | B14 | 0.000683 KA relative to UGCAUGU
15 | B15 | 0.00236 KA relative to UGCAUGU
16 | B16 | 0.000699 KA relative to UGCAUGU

Row | Binder | binding signal
17 | B17 | 0.00565 KA relative to UGCAUGU
18 | B18 | 0.024 KA relative to UGCAUGU
19 | B19 | 0.0114 KA relative to UGCAUGU
20 | B20 | 0.00863 KA relative to UGCAUGU
21 | B21 | 0.00145 KA relative to UGCAUGU
22 | B22 | 0.00188 KA relative to UGCAUGU
23 | B23 | 0.00682 KA relative to UGCAUGU
24 | B24 | 0.00309 KA relative to UGCAUGU
25 | B25 | 0.0078 KA relative to UGCAUGU
26 | B26 | 0.00222 KA relative to UGCAUGU
27 | B27 | 0.00564 KA relative to UGCAUGU
28 | B28 | 0.0222 KA relative to UGCAUGU
29 | B29 | 0.0125 KA relative to UGCAUGU
30 | B30 | 0.00672 KA relative to UGCAUGU
31 | B31 | 0.00115 KA relative to UGCAUGU
